Test results from PubChem BioAssay AID1030 (National Center for Advancing Translational Sciences (NCATS), 2008).
Values joined by “and” are separate entries in the source; they are usually repeats but may differ in a detail not shown here. Equal values may be shown once. In all, about 220,000 compounds went through this assay and about 16,000 (7.3%) were called active. The shares of active, inactive and inconclusive entries below differ from those in the screen. Calls follow the shape of the dose curve; as a rule, active = well fitted inhibition curve with a large enough effect (not every such curve was filed as active); inconclusive = small, poorly fitted or top-dose-only effect, or another doubt; inactive = no such curve, though single readings can be large or run the other way. Potencies of inconclusive entries are left out as doubtful fits. Some structures have more than one record in an assay (separate samples or runs), and their calls can disagree.

biological target: Aldehyde dehydrogenase 1A1 (Homo sapiens) (UniProt P00352); experiment: qHTS Assay for Inhibitors of Aldehyde Dehydrogenase 1 (ALDH1A1); conditions: Purified ALDH1A1, NADH fluorescence, propionaldehyde substrate; series mostly up to 75.3 µM; activity, negative = inhibition: at the top concentration;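 as to activity, negative = inhibition: plate controls were no enzyme wells and a reference inhibitor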
Chain of UniProt P00352 (P00352 whole entry, looked up): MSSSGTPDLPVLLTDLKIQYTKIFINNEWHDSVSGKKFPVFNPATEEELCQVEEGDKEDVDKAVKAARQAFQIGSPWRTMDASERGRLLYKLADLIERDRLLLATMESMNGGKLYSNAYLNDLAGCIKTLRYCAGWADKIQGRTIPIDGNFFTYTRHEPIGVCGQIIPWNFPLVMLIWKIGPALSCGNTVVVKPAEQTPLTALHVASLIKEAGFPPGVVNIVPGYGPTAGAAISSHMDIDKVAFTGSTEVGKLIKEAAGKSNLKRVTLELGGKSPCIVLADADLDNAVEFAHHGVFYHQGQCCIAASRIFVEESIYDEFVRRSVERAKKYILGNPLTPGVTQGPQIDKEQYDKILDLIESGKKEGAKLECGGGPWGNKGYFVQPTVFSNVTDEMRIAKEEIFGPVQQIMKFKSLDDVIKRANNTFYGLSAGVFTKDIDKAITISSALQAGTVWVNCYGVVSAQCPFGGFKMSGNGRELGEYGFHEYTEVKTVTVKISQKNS
Potency is read from the fitted curve at half-maximal effect; tags tell the direction and shape of the fitted curve.

Compound | Potency | activity, negative = inhibition
COc1cc2[nH]c(=O)n(CCC(=O)N3CCN(Cc4ccccc4)CC3)c(=O)c2cc1OC | inconclusive [inhibitor, single point] | 
CC1=C(C(=O)Nc2ccccn2)C(c2ccc(F)cc2)n2ncnc2N1 (stereo not given) | inconclusive [inhibitor, partial curve] | 
CC(=O)[C@@H](C)CCO[C@@]1(C)OCC[C@@H]1C |  | inactive: 8.62% [at 13.5 µM]
O=S(=O)(Cc1ccccc1Cl)Nc1ccccn1 | inconclusive [inhibitor, partial curve] | 
CC(Sc1nnc(-c2ccco2)o1)C(=O)NCCC1=CCCCC1 (stereo not given) | inconclusive [inhibitor, partial curve, poor fit] | 
CN(Cc1ccccc1)C(=O)CSc1nnc(-c2ccco2)n1-c1ccccc1 | inconclusive [inhibitor, single point] | 
C/C(Cl)=C\Cn1c(Nc2ccc(C)cc2)nc2c1c(=O)n(C)c(=O)n2C | inconclusive [inhibitor, single point] | 
CN=c1scc(-c2cccs2)n1/N=C/c1ccc(O)c(O)c1O | active: 6.31 µM | 
c1ccc(-n2nnnc2SCc2cccc(CSc3nnnn3-c3ccccc3)n2)cc1 | active: 1.58 µM | 
CCc1ccc(N(C(=O)c2csnn2)C(C(=O)NC(C)(C)C)c2ccccn2)cc1 (stereo not given) | inconclusive [inhibitor, single point] | 
CCCC[n+]1ccn(C2=C([O-])c3ccccc3C(=O)/C2=N\S(=O)(=O)c2ccc(Br)cc2)c1 | inconclusive [inhibitor, full curve] | 
O=[N+]([O-])/C(C(Cl)=C(Cl)Cl)=C(/Sc1ccccc1)N1CCCCC1 | active: 17.8 µM | 
CCc1ccc(CCC(=O)Nc2ncc(Cc3ccccc3Cl)s2)o1 | inconclusive [inhibitor, single point] | 
S=C(NCc1ccco1)Nc1ccc(Br)cc1Cl | inconclusive [inhibitor, single point] | 
O=S(=O)(Nc1cccnc1)c1ccc(Cl)c(C(F)(F)F)c1 |  | inactive: 2.81%
O=C1[C@H]2[C@@H](C(=O)N1c1cccc3ccccc13)C1(C(=O)c3ccccc3C1=O)N1CCC[C@@H]21 | active: 11.2 µM | 
N#Cc1cc2c(nc1SCC(=O)N1CCCCC1)CCCCC2 | active: 22.4 µM | 
COc1cc2[nH]c(=S)n(Cc3cccs3)c(=O)c2cc1OC | active: 1.12 µM | 
COC(=O)C(C(=O)Nc1ccccc1C)C1CCCC1 (stereo not given) |  | inactive: -6.13%
Cc1cccc(C)c1NC(=O)C(c1ccccc1)N1CCC1=O (stereo not given) |  | inactive: 0.648%
CN(Cc1ccccc1)C(=O)c1cccc(N2C(=O)NC3CC2(C)Oc2ccccc23)c1 (stereo not given) | inconclusive [inhibitor, single point] | 
OC1CC(c2ccco2)NC2(CCCCC2)C1 (stereo not given) | inconclusive [inhibitor, single point] | 
Oc1c(Cl)cc(Cl)cc1Sc1cc(Cl)cc(Cl)c1O | active: 23.8 µM | 
C=CCC1(c2ccccc2)Oc2ccccc2-c2nc3cc(Cl)c(Cl)cc3nc21 (stereo not given) |  | inactive: -5.56% [at 13.5 µM] and inactive: -3.98% [at 13.5 µM]
CCOc1cc(-c2nc(C)c(C(C)=O)n2O)ccc1OCC(=O)Nc1ccccc1 | inconclusive [inhibitor, single point] | 

Compound | Potency | activity, negative = inhibition
COc1ccc(CNC(=O)C2CSC(c3ccc(OC)cc3)N2C(C)=O)cc1 (stereo not given) | inconclusive [inhibitor, partial curve] | 
CCCCOc1ccc(CC(=O)NO)cc1 | inactive | 
Cn1nc(-c2ccc(OCC(=O)NCC3CCCO3)cc2)c2ccccc2c1=O (stereo not given) | inconclusive [inhibitor, partial curve] | 
CN1CCN(C(=O)c2cn(-c3ccccc3)nc2-c2cccnc2)CC1 | inconclusive [inhibitor, single point] | 
COc1ccc(-n2c(=S)[nH]c3ccccc32)cc1 | active: 31.6 µM | 
O=C(c1cc(-c2cccs2)nc2ccccc12)N1CCN(S(=O)(=O)c2cccc(F)c2)CC1 | inconclusive [inhibitor, partial curve] | 
CCc1ccc(C2CC(=O)N(c3ccc(F)cc3)C3=C2C(=O)OC3)cc1 (stereo not given) | inconclusive [inhibitor, partial curve] | 
CN(C)c1ccc(/C=C2\C(=O)Nc3ccccc32)cc1 | active: 12.6 µM and active: 20 µM and active: 7.08 µM | 
Cc1ccccc1NC(=O)Nc1ccccc1C(N)=O |  | inactive: 5.09%
CC1(Br)C2CCCC1C2S(=O)(=O)c1ccccc1 (stereo not given) | inconclusive [inhibitor, single point] | 
CCOC(=O)CNc1nc(C(C)(C)C)nc2c1nnn2Cc1ccccc1Cl | inconclusive [inhibitor, single point] | 
Fc1ccc2[nH]c3c(c2c1)CN(C(=S)NCc1ccccc1)CC3 | inconclusive [inhibitor, single point] | 
CCOC(=O)Cc1cc(=O)n2[nH]c(C)cc2n1 | inconclusive [inhibitor, single point] | 
Cc1csc2c(SCC(=O)NNC(=O)C(Cl)Cl)ncnc12 | active: 28.2 µM | 
Cc1cccc2cc(CN(Cc3ccccc3)C(=O)c3cccc(F)c3)c(Cl)nc12 | active: 8.91 µM | 
CC(=O)Nc1sc2c(c1C(N)=O)CCCC2 |  | inactive: 3.71%
Cc1ccc(S(=O)(=O)NCC(=O)N(CC(=O)NCc2ccco2)Cc2cccs2)cc1 | inconclusive [inhibitor, single point] | 
COc1cccc(C(=O)c2c[nH]c(C(=O)NCc3ccco3)c2)c1 | inconclusive [inhibitor, single point] | 
COc1ccc(C2CC(=O)Oc3c2c(=O)n(C)c2ccccc32)c(OC)c1OC (stereo not given) |  | inactive: -1.39%
N#Cc1ccc(CN2CCN(C(=O)c3ccccc3)CC2)c(Cl)c1 | inconclusive [inhibitor, single point] | 
O=C(NC1CCCCCC1)C(=S)NCc1ccccc1 | active: 25.1 µM | 
COc1cc(C(C)=O)ccc1COc1ccc(C(=O)OCC(N)=O)cc1OC |  | inactive: 9.32%
CCOC(=O)c1cc(C)sc1NC(=O)C(c1ccccc1)c1ccccc1 |  | inactive: 10.3%
O=C(NNC(=S)Nc1ccc(F)cc1)c1ccccc1OC(F)F | inconclusive [inhibitor, single point] | 
Cc1cccc(N2CCN(C(=O)C3CCN(S(=O)(=O)N4CCOCC4)CC3)CC2)c1C | inconclusive [inhibitor, partial curve] | 

Compound | Potency | activity, negative = inhibition
O=C(Nc1ccc2c(c1)OCCO2)C1c2ccccc2C(=O)N2CCc3ccccc3C12 (stereo not given) |  | inactive: -2.5%
Cc1cc(OCC(=O)Nc2ccc3oc(-c4ccncc4)nc3c2)ccc1Cl |  | inactive: 2.76%
CCCCOC(=O)c1ccc(NC(=O)c2ccccc2OC)cc1 | inconclusive [inhibitor, single point] | 
COc1ccc(/C=N/c2nc3ccccc3n2C)cc1OC | inconclusive [inhibitor, single point] | 
CCOC(=O)N1CCC(Nc2ncnc3c2cnn3-c2ccc(Cl)cc2)CC1 | inconclusive [inhibitor, partial curve] | 
Cc1cnnc2ccc3c(no[n+]3[O-])c12 | inconclusive [inhibitor, single point] | 
Cc1cccc(N2CCN(C(=O)c3ccc(CNc4c(N5CCC(C)CC5)c(=O)c4=O)cc3)CC2C)c1 (stereo not given) |  | inactive: -1.86%
COc1ccccc1C(=O)/C=C/c1ccc(N2CCCCC2)c([N+](=O)[O-])c1 | active: 6.31 µM | 
O=c1cc(-c2cccc(O)c2)oc2c(O)c(O)ccc12 | inconclusive [inhibitor, single point] | 
Cn1ncnc1SCc1cn2cccnc2n1 | inconclusive [inhibitor, partial curve] | 
O=c1cc(N2CCc3ccccc32)[nH]c(=O)n1-c1ccccc1Cl |  | inactive: -6.83%
CSc1c(C#N)c(N)c(C#N)c2c1COC(C)(C)C2 | inconclusive [inhibitor, partial curve] | 
COc1ccc(S(=O)(=O)Nc2cc(C)ccc2OC)cc1C |  | inactive: -5.88%
Cn1cnnc1SCC(=O)Nc1cccc(C(=O)O)c1 |  | inactive: 1.43%
Cc1csc(SCC(=O)Nc2cc(S(=O)(=O)N3CCCC3)ccc2Cl)n1 | active: 1.26 µM | 
Clc1cc(NCc2cccs2)ccc1N1CCOCC1 | inconclusive [inhibitor, single point] | 
Cc1cccc(NC2=C(NC(=O)c3ccccc3)C(=O)c3ccccc3C2=O)c1 | active: 25.1 µM | 
Cn1c(=O)c2c(SCC(N)=O)nc(CC(C)(C)C)nc2n(C)c1=O | inconclusive [inhibitor, full curve] | 
CN(C)S(=O)(=O)c1cccc(C(=O)Nc2cc(Cl)cc(Cl)c2)c1 | inconclusive [inhibitor, single point] | 
CS(=O)(=O)Nc1cccc(-c2nc(-n3ccnc3)c3ccccc3n2)c1 |  | inactive: 4.45%
CC(=O)Nc1cccc(/C(C)=N/NC(N)=S)c1 | inconclusive [inhibitor, single point] | 
COC(=O)c1nc(N)sc1C |  | inactive: 8.41%
CCOC(=O)C1(CCCc2ccccc2)CCN(CC(O)CO)CC1 (stereo not given) | inconclusive [inhibitor, single point] | 
Nc1ccccc1-c1n[nH]c(=S)s1 | inconclusive [inhibitor, partial curve] | 
NNC(=O)c1ccc(COc2ccccc2)cc1 | active: 2.24 µM | 
